Experimental data published in PubChem BioAssay AID1030 (National Center for Advancing Translational Sciences (NCATS), 2008).
Screen size: about 220,000 compounds; about 16,000 (7.3%) were called active. Inconclusive means that the source gave no clear call. Such entries were picked first, then a sample of the others. Calls come from the whole dose curve; as a rule, active = well fitted inhibition curve with a large enough effect (not every such curve was filed as active); inconclusive = small, poorly fitted or top-dose-only effect, or another doubt; inactive = no such curve, though single readings can be large or run the other way. Potencies of inconclusive entries are left out as doubtful fits.
Potency is the fitted concentration of half-maximal effect; tags give direction and shape of the fitted curve.
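Throughout, for activity, negative = inhibition: plate controls were no enzyme wells and a reference inhibitor.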

These compounds were tested against Aldehyde dehydrogenase 1A1 (Homo sapiens) (UniProt P00352) (assay: qHTS Assay for Inhibitors of Aldehyde Dehydrogenase 1 (ALDH1A1)). Details: Purified ALDH1A1, NADH fluorescence, propionaldehyde substrate; series mostly up to 75.3 µM; activity, negative = inhibition: at the top concentration.
UniProt P00352, sequence (P00352 whole entry, looked up): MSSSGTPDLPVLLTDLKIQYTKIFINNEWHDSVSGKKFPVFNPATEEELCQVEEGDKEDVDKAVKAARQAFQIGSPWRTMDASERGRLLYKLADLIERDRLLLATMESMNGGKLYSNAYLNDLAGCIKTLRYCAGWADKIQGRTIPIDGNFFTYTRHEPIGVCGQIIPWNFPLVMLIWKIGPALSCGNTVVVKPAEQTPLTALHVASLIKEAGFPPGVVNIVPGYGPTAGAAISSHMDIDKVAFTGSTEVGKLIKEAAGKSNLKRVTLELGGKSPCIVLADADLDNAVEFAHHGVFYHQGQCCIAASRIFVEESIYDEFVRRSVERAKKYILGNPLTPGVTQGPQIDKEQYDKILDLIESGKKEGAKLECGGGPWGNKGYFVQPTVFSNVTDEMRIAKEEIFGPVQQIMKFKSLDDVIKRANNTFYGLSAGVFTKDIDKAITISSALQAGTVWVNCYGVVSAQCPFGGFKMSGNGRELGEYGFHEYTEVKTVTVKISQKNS
COCC(=O)Nc1cc(Cl)c(OC)cc1OC was tested, and the Potency was inconclusive [inhibitor, single point].
Cc1[nH]nc2c1C(c1ccc(OC(=O)c3ccco3)cc1)C(C#N)=C(N)O2 (stereo unspecified) was tested, and the Potency was inconclusive [inhibitor, single point].
With NNC(=O)c1ccc(-c2ccccc2F)cc1 the Potency was active: 1.12 µM.
With CC(C)c1nc(SCC(=O)c2ccc(F)cc2)c2ccccc2n1 the Potency was active: 20 µM.
With COc1cc(C)ccc1OCCOCCOc1ccc(C)cc1[N+](=O)[O-] the Potency was inconclusive [inhibitor, single point].
With N#C/C(=C\c1ccco1)c1nc2ccccc2s1 the “activity, negative = inhibition” value was inactive: -14.5%.
For O=S(=O)(Nc1ccc(N2CCCCC2)cc1)c1ccccc1F, the Potency was inconclusive [inhibitor, single point].
CN(Cc1cccnc1)C(=O)CC1C(=O)NCCN1Cc1ccc(-c2ccccc2)cc1 (stereo unspecified) was tested, and the Potency was active: 15.8 µM.
In the case of COc1ccc(NC(=O)CSc2nnnn2-c2ccc(OC)cc2)cc1, the “activity, negative = inhibition” value is reported as inactive: 7.21%.
In the case of COc1ccc(C(=O)Nc2c(Cl)cc(Cl)cc2C(=O)N2CCOCC2)cc1, the “activity, negative = inhibition” value is reported as inactive: -2.49%.
O=C(O)Cc1ccc2[nH]c3ccc(CC(=O)O)cc3c2c1 was tested, and the Potency was inconclusive [inhibitor, partial curve].
In the case of CCOC(=O)C1=C(C)N(C)C(=O)NC1c1c(C)nn(-c2ccc(C)cc2)c1Cl (stereo unspecified), the “activity, negative = inhibition” value is reported as inactive: 1.88%.
In the case of O=C(CSc1nnc(NC(=O)c2ccccc2Cl)s1)Nc1ccc2c(c1)oc1ccccc12, the Potency is reported as active: 17.8 µM.
In the case of O=C(Nc1ccc(S(=O)(=O)Nc2nccs2)cc1)/C(=C/c1ccccc1Cl)NC(=O)c1ccccc1, the Potency is reported as inconclusive [inhibitor, partial curve, poor fit].
In the case of CCc1nnc(NC(=O)c2nc3nc(C)cc(C)n3n2)s1, the Potency is reported as inconclusive [inhibitor, partial curve].
Nc1ccc(F)cc1F was tested, and the Potency was inconclusive [inhibitor, single point].
With Cc1ccc(CCNC(=O)CN(C)S(=O)(=O)c2ccc3c(c2)c(=O)n(C)c(=O)n3C)cc1 the Potency was active: 12.6 µM.
CCOC(=O)CCN1C(=O)[C@H]2[C@H]3[C@H](O)[C@H](O)C/C(=N/NC(=O)OCC)[C@@H]3CC[C@@H]2C1=O was tested, and the activity, negative = inhibition was inactive: 2.03% [at 13.5 µM].
For N#CC1=C(N)Oc2cc3ccccc3cc2C1c1cccnc1 (stereo unspecified), the Potency was active: 14.1 µM.
With Cc1cc(C)n2nc(SCC(=O)N(C)Cc3ccccc3)nc2n1 the “activity, negative = inhibition” value was inactive: -2.48%.
With COC(=O)c1ccc(C(/C=C/[C@@H](C)C(=O)N(C)C)NC(=O)OCc2ccccc2)cc1 (stereo partly specified) the Potency was inconclusive [inhibitor, single point].
With COc1ccc(C(=O)/C=C/C(=O)N(Cc2ccccc2OC)C(C(=O)NC2CCCCC2)c2ccncc2)c(O)c1 (stereo unspecified) the “activity, negative = inhibition” value was inactive: -0.106%.
With O=c1[nH]c(CNCc2cccnc2)nc2ccccc12 the Potency was inconclusive [inhibitor, partial curve, poor fit].
In the case of Cc1nnc(NC(=O)CCSCCC(=O)Nc2nnc(C)s2)s1, the Potency is reported as inconclusive [inhibitor, single point].
For CCNc1ncc2nc(CCc3ccccc3)c(=O)n(C[C@H]3CCCO3)c2n1, the Potency was inconclusive [inhibitor, partial curve].
For CC(=O)Nc1ccc(NC(=O)CSc2ccc(-c3ccco3)nn2)cc1, the Potency was active: 7.08 µM.
For CC(C)(C)n1nnnc1C(c1ccncc1)N1CCCCCC1 (stereo unspecified), the Potency was inconclusive [inhibitor, single point].
Cc1cccc(-n2c(=O)cc(N3CCN(c4ccc(F)cc4)CC3)[nH]c2=O)c1 was tested, and the “activity, negative = inhibition” value was inactive: -8.11%.
For COc1ccc(S(=O)(=O)CCC(=O)Nc2ccc(OC)cc2OC)cc1, the Potency was inconclusive [inhibitor, single point].
With O=C(Nc1cc2c(oc1=O)CCCC2=O)c1cccc(Cl)c1 the Potency was inconclusive [inhibitor, partial curve].
With COC(=O)/C(=C(/F)SCC(C)=O)C(F)(F)F the Potency was inconclusive [inhibitor, single point].
For CCNC(=O)[C@H](C)/C=C/C(NC(=O)OCc1ccccc1)c1ccc(C(=O)OC)cc1 (stereo partly specified), the “activity, negative = inhibition” value was inactive: -13%.
For CCCOC(=O)c1ccc(NC(=O)C(=O)NCC2CCCO2)cc1 (stereo unspecified), the Potency was inconclusive [inhibitor, single point].
For COc1ccccc1Nc1nc(N)nc(CN2CCC(C)CC2)n1, the “activity, negative = inhibition” value was inactive: 8.46%.
CCOC(=O)c1cc(CC)sc1/N=C/C1C(=O)CCCC1=O was tested, and the “activity, negative = inhibition” value was inactive: 5.62%.
O=C1N=C(N2CCN(c3cccc4ccccc34)CC2)S/C1=C/c1cccs1 was tested, and the “activity, negative = inhibition” value was inactive: -4.46%.
With Cc1ccc(C)c(S(=O)(=O)Nc2cc(SCC(=O)O)c(O)c3ccccc23)c1 the Potency was active: 25.1 µM.
With COc1ccc(-c2[nH]c(-c3ccc(SC)cc3)nc2SCC(=O)Nc2nccs2)cc1 the Potency was inconclusive [inhibitor, partial curve].
For CC(/C=C/c1ccc(N(C)C)cc1)=N\N=C1\NC(=O)CC(C(=O)Nc2ccccc2)S1 (stereo unspecified), the Potency was inconclusive [inhibitor, single point].
With O=C(NCC1CCCO1)c1c(O)c2ccccc2[nH]c1=O (stereo unspecified) the Potency was inconclusive [inhibitor, partial curve].
In the case of Cc1cc(=O)n2[nH]c(-c3ccccc3)cc2n1, the Potency is reported as inconclusive [inhibitor, single point].
O=C(CNC(=O)c1cccc(F)c1)N/N=C/c1cc(Br)ccc1OCc1ccccc1 was tested, and the Potency was inconclusive [inhibitor, single point].
For CCn1c(=O)cc(OCC(=O)Nc2cc(C)ccn2)c2ccccc21, the Potency was inconclusive [inhibitor, single point].
With Clc1ccc(/C=N/c2c(-c3ccco3)nc3ccccn23)cc1 the Potency was inconclusive [inhibitor, single point].
For O=C(c1ccc(COc2ccc(Cl)cc2)cc1)N1CCCCC1, the Potency was active: 28.2 µM.
For CC1CCCN(C(=O)Nc2cccc(NC(=O)N3CCCC(C)C3C)c2)C1C (stereo unspecified), the Potency was inconclusive [inhibitor, single point].
For CCOC(=O)C1(Cc2ccccc2)CCN(Cc2cnc(N3CCOCC3)s2)CC1, the Potency was inconclusive [inhibitor, single point].
In the case of Cc1cccc(-n2cc[nH]c2=S)c1, the Potency is reported as inconclusive [inhibitor, single point].
CCc1ccc(NC(=O)C(=O)NCc2ccccn2)cc1 was tested, and the “activity, negative = inhibition” value was inactive: 3.25%.
In the case of Cc1ccc2nc3c(cc(C(=O)NCc4ccco4)c(=N)n3Cc3ccco3)c(=O)n2c1, the Potency is reported as inconclusive [inhibitor, single point].
With Cn1c(=O)c2[nH]c(CNCc3ccccc3Cl)nc2n(C)c1=O the Potency was inconclusive [inhibitor, single point].
COc1ccc(Sc2nc(-c3ccccc3)ncc2C(=O)O)cc1 was tested, and the Potency was inconclusive [inhibitor, partial curve].
For CCn1c(SCC(=O)c2cc(OC)ccc2OC)nnc1C(C)C, the Potency was active: 28.2 µM.
In the case of CC(=O)N1CCN2C(=O)C1CCCC(=O)c1cc(C3CCCCC3)ccc12 (stereo unspecified), the Potency is reported as inconclusive [inhibitor, single point].
With O=C(c1ccccc1)N1CCN(Cc2ccccc2C(F)(F)F)CC1 the Potency was inconclusive [inhibitor, single point].
For O=C(Nc1ccccc1)c1cccc(-c2nnc(-c3ccccc3)o2)c1, the Potency was inconclusive [inhibitor, single point].
In the case of Cc1ccc2cc(C)c3nnc(SCC(=O)N4CCN(C(=O)c5ccco5)CC4)n3c2c1, the Potency is reported as inconclusive [inhibitor, single point].
In the case of COc1cc(CNCc2ccco2)ccc1OCc1ccccc1, the “activity, negative = inhibition” value is reported as inactive: -9.1%.
O=[N+]([O-])c1ccccc1Oc1ccc(C(F)(F)F)cn1 was tested, and the “activity, negative = inhibition” value was inactive: 13.7%.
In the case of Cc1cc(C)nc(SCNC(=O)c2ccc(F)cc2)n1, the “activity, negative = inhibition” value is reported as inactive: 4.49%.
For CCCCNC(=O)C1CCN(C/C(C)=C/c2ccccc2)CC1, the Potency was inconclusive [inhibitor, single point].
In the case of COc1ccc(NS(=O)(=O)c2cccc(C(=O)N/N=C(\C)c3ccc(-n4ccnc4)cc3)c2)cc1, the Potency is reported as inconclusive [inhibitor, partial curve].
With Cc1ccc(-c2nnc(C)c(N3CC(C)OC(C)C3)n2)cc1 (stereo unspecified) the Potency was inconclusive [inhibitor, partial curve].
For CC(C)CCNC(=O)c1ccc2c(SCC(=O)O)c3c(nc2c1)CCCC3, the Potency was inconclusive [inhibitor, partial curve].
With C/C(=N\NC(=O)c1c[nH]c2ccccc12)c1ccco1 the Potency was inconclusive [inhibitor, single point].
With CCOC(=O)C1=C(C)NC(=O)NC1c1ccc(OC)c(CN2CCOCC2)c1 (stereo unspecified) the Potency was inconclusive [inhibitor, single point].
O=C(c1cccc(S(=O)(=O)N2CCc3ccccc3C2)c1)N1CCN(c2ccccc2)CC1 was tested, and the “activity, negative = inhibition” value was inactive: -3.36%.
In the case of CCN(CC)S(=O)(=O)c1ccc2[nH]cc(C(=O)NCCCN3CCCCC3C)c(=O)c2c1 (stereo unspecified), the Potency is reported as inconclusive [inhibitor, single point].
In the case of COc1ccc(NC(=S)N2CCNC(=O)C2CC(=O)Nc2ccc(C)cc2)cc1 (stereo unspecified), the Potency is reported as inconclusive [inhibitor, single point].
In the case of Cc1ccc(NC(=O)COc2ccccc2C(=O)NCCN(C)C)cc1, the Potency is reported as inconclusive [inhibitor, single point].
For O=C(NCc1ccc2c(c1)OCO2)NC12CC3CC(CC(C3)C1)C2, the Potency was inconclusive [inhibitor, single point].
